Measurements published in patent US11365205B2 (Aurigene Discovery Technologies Limited, priority 2018, dated 2022).

Biological target: PRMT5/MEP50 Complex (Homo sapiens (Human), UniProt O14744)
Assay: PRMT5 inhibition based on TR-FRET assay
Type: biochemical
Conditions: 32 nM PRMT5:MEP50, 50 nM Histone-H4 peptide, 1 μM SAM
Source text: PRMT5 Inhibition Based on TR-FRET Assay:
Protein arginine methyltransferase 5 (PRMT5) is a type II arginine methyltransferase that catalyze mono- and symmetric demethylation on arginine residues of histone or non-histone proteins in presence of S-adenosylmethionine (AdoMet or SAM) a cofactor responsible for donating the methyl group. PRMT5 is reported to be overexpressed in several human cancers. To identify compounds that inhibit the PRMT5 and decrease its activity, a TR-FRET based assay has been established. Time-resolved fluorescence resonance energy transfer (TR-FRET) HTS assays are homogeneous proximity assays where the interaction of two dye-labeled binding partners is detected by the energy transfer between a donor and an acceptor dye and the subsequent light emission by the acceptor dye. PRMT5 catalyzes Histone H4 peptide which is biotin tagged to the Lysine amino acid at carboxyl end, in presence of S-adenosyl-1-methionine (SAM) to methylate the peptide. The antibody specific to mono methylated H4 peptide (H4R3) with Ig conjugate binds to the methylated peptide, indirectly binding to the Europium lanthanide. […]
The compound dilutions were prepared as 7.5% DMSO stock solutions in assay buffer. […] The plates were then read on Victor-3 with Excitation at 340 nm and Emissions collected at 615 and 665 nm in TR-FRET protocol. […]

Sequence of UniProt O14744 (O14744 whole entry): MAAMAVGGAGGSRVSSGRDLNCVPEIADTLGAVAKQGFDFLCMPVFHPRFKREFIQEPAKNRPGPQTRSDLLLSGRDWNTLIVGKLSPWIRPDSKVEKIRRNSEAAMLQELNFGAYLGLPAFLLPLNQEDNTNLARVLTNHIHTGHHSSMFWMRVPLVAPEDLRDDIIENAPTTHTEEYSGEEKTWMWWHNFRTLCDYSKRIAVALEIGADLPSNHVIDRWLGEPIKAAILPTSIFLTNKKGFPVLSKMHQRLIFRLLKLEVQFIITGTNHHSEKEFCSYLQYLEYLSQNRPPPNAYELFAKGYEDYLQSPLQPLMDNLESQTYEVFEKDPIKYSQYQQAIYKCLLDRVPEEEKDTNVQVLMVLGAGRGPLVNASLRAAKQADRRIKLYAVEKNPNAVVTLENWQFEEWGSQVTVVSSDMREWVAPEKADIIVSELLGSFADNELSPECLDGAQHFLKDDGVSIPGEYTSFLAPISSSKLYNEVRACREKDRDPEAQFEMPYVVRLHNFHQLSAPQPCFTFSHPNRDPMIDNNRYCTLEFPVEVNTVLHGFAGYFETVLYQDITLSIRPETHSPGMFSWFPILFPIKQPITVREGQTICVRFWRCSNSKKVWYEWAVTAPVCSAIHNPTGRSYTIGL
Sequence of UniProt O14744 (Q9BQA1 whole entry partner): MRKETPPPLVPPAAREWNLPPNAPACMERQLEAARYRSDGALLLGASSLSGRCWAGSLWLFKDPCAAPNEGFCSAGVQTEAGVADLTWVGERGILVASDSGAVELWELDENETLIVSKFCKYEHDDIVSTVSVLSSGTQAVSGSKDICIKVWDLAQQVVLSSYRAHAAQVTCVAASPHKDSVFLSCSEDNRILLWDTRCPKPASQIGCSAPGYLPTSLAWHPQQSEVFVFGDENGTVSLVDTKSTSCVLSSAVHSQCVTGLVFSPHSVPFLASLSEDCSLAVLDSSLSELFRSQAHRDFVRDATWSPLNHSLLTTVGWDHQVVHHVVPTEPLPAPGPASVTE

SMILES | IC50 [µM]
CC(C)c1ccc(CN2CCN(CC(O)CN3CCc4ccccc4C3)C2=O)nc1 (centres unmarked) [Example 31, 1-(3-(3,4-Dihydroisoquinolin-2(1H)-yl)-2-hydroxypropyl)-3-((5-isopropylpyridin-2-yl)methyl)imidazolidin-2-one] | 0.05
O=C(c1ccc(N2CCN(CC(O)CN3CCc4ccccc4C3)C2=O)nc1)N1CCCCC1 (centres unmarked) [Example 34, 1-(3-(3,4-dihydroisoquinolin-2(1H)-yl)-2-hydroxypropyl)-3-(5-(piperidine-1-carbonyl)pyridin-2-yl)imidazolidin-2-one] | 3.42
